In all, about 150,000 compounds went through this assay and about 540 (0.36%) showed an effect of 50% or more. The list shows a part of the results.
tested on: Plasmodium falciparum; assay: Primary screen in NF54 nanoGlo assay, in single point, at 2uM, 72h; a lower Z score goes with more inhibition; format: functional, Erythrocyte; conditions: timepoint 72 hour

Structure (SMILES)	% Inhibition [%]	Z score
Cc1csc(N(C)C(=O)c2ccc(OC3CCOCC3)cc2)n1	-11	1.75
CCc1nc2c(c(NCCCc3c(C)noc3C)n1)CCNCC2	-1	0.21
Cc1ccc(-c2nnc3ccc4nnc(C)n4n23)c(C)c1F	1	-0.12
Cc1ccc(O[C@H]2CCOC[C@H]2NC(=O)CCc2c(C)noc2C)cn1	6	-0.82
O=C(CCc1nc(CS(=O)(=O)c2ccccc2)no1)NC1CCCCC1	0	-0.06
O=C(c1cc(OCc2ccccc2)no1)N1CCOCC1	-9	1.71
CS(=O)(=O)N1CCC[C@H]1c1noc(CCC(=O)NCc2cccnc2)n1	-9	1.06
O=c1c2ccccc2sn1-c1cccc(S(=O)(=O)N2CCCCCC2)c1	-41	4.08
Cn1nccc1CN1CCN(CC(=O)NC2(C#N)CCCCC2)CC1	0	-0.02
O=C(c1cccnc1)N(CC1CCN(C2Cc3ccccc3C2)CC1)C[C@H]1CCCO1	-1	0.18
COc1ccc(CN(Cc2ccncc2)CC2CCN(C3CCN(C)CC3)CC2)c(F)c1	88	-10.13
CC(C)c1cc(C(=O)N2CCC3(CC2)Cc2cn(nn2)CCCOc2ccc(cc2)CCNC3=O)on1	-6	1.18
O=C(Nc1ccccc1)c1ccc(Oc2ccc(S(=O)(=O)N3CCOCC3)cc2S(=O)(=O)N2CCOCC2)cc1	33	-3.77
O=C(COc1ccc2c(c1)N=C(O)CC2)N1CCO[C@H](c2ccccc2)C1	-19	2.78
CC(=O)N[C@H]1C[C@H]2CN(S(=O)(=O)c3ccccc3)CC(=O)N2C1	-10	1.36
O=C(OCc1ccccc1F)[C@@H]1CCCN1C1CCCC1	-4	0.48
Cc1cc(C)c2c(=O)n(CC(=O)NC3CCCCC3)c(=O)n(-c3ccccc3)c2n1	-11	1.38
CCOc1cc(C(=O)N[C@H]2CCS(=O)(=O)C2)cc2occc12	43	-5.75
CCC(=O)OC1(C#CCOc2ccc(OC)cc2)CCN(C)CC1	37	-4.15
COc1ccc(S(=O)(=O)n2nc(Nc3ccc(Cl)cc3)cc2Nc2ccc(Cl)cc2)cc1	2	-0.34
Cc1ccc2nc(NC(=O)CCC(=O)c3ccc4c(c3)OCCO4)sc2c1	-4	0.74

Structure (SMILES)	% Inhibition [%]	Z score
CC(C)N(C)C(=O)NC[C@H]1COC2(CCCCCC2)O1	-8	1.01
Cc1nc(C)c(C(=O)N2CCC([C@]3(c4cccnc4)NC(=O)N(Cc4ccsc4)C3=O)CC2)s1	6	-0.98
COc1ccccc1CNC(=O)CN(Cc1nccn1C)C1CC1	1	-0.25
O=C(Nc1cccnc1)[C@H]1CC(=O)N(Cc2cccc(C(F)(F)F)c2)C1	2	-0.16
CCc1ccccc1NC(=O)C1CCN(c2nnc(C)c3c(C)n(-c4ccc(Cl)cc4)nc23)CC1	17	-1.98
O=C(CCN1CCOC1=O)Nc1nc2cc(F)c(F)cc2s1	1	-0.13
C/C=C(\C)CN1CCC2(CC1)c1ccccc1[C@@H](NC(=O)C(C)C)[C@@H]2OCCOC	-12	1.4
CC1CCC2(CCN(S(=O)(=O)c3ccc4c(c3)CCCC4=O)C2)C1 (stereo unspecified)	-11	1.41
O=C1C[C@@H](c2ccccc2)N(S(=O)(=O)c2ccccc2)CCCCCN1	-7	0.94
CN1C[C@@H](C(=O)NCC2(N3CCOCC3)CCCCC2)CC1=O	2	-0.3
Cc1ccccc1[C@@]1(CC(=O)NCc2cncn2C2CC2)CCOC(C)(C)C1	-16	1.7
O=S(=O)(c1ccccc1F)N1CCCCC[C@H]1c1ccccc1Cl	-20	2.71
c1cc(N[C@@H]2[C@@H]3CCO[C@@H]3[C@@H]2C2CCCC2)ccn1	-12	1.08
CC(C)C(=O)Nc1nc2nccnc2c(=O)[nH]1	-7	0.78
O=C(N1CCC[C@@]2(CCS(=O)(=O)C2)C1)C1(O)CCCC1	-3	0.31
O=C(Nc1cc(S(=O)(=O)N2CCOCC2)ccc1Oc1ccc(F)cc1)C1CCCCC1	13	-1.5
Cn1cc(C(=O)C(C#N)C(=O)NCC2CCCO2)c2ccccc21 (stereo unspecified)	-8	1.21
O=C(c1c[nH]c2cc(F)ccc12)N1C[C@H]2CCS(=O)(=O)[C@H]2C1	-14	1.85
CCN(Cc1nnsc1Cl)[C@H]1CCN(c2ccccc2)C1=O	0	-0.03
CN(C(=O)Cc1cc(Br)ccc1F)c1nncn1C	37	-5.37
Cc1ccc(NC(=O)c2nc(-c3cn(-c4ccc(C)cc4)nn3)no2)cc1	-10	2.02

Structure (SMILES)	% Inhibition [%]	Z score
Fc1cc(Br)ccc1OCc1nnc(C2CC2)o1	-9	1.04
CCCCc1nc(CN2CCC[C@H]2C(=O)NC)no1	-4	0.55
C=C(C)COc1c(OC)cccc1[C@H]1CC(=O)NCc2nc(N)sc21	-4	0.57
CC(C)CCN1CCC[C@@H]1Cn1cncn1	-2	0.24
Cc1ncccc1C(=O)N(C)C[C@@H]1CC(F)(F)CN1C1CN(C)C1	-6	1.06
COc1ccc(-c2nc(NCc3nnc4ccccn34)[nH]c(=O)c2C#N)cc1	10	-1.91
CCN1C(=O)C[C@H](Nc2ccc3c(c2)OCCO3)C1=O	-7	1.24
C[C@@]1(C(=O)NCc2cccc(Br)c2)Oc2cccnc2NC1=O	-5	0.9
CO[C@@H](C(=O)N1CCc2cn[nH]c2C1)c1ccccc1C(F)(F)F	3	-0.6
COc1cc(C(=O)NC2CCCCC2)ccc1OCc1ccc(Cl)cc1Cl	1	-0.19
COc1ccc(CNC(=O)N2CCC(n3ccnn3)CC2)cc1OC	-16	2.44
Cc1ccc(CN2CCN(C(=O)C[C@]3(c4ccccc4F)CC(=O)N(C)C3=O)CC2=O)cc1	9	-1.14
COc1cc2c(cc1CN1CC[C@H](CO)[C@@H](O)C1)OCO2	2	-0.18
NC(=O)[C@H]1CCCN1C(=O)C1CCN(c2cc(Cl)ccc2Cl)C1=O (stereo partly specified)	-10	1.9
COCCN1CC2(CCC1=O)CCN(C(=O)c1cnc(C)cn1)CC2	-1	0.2
CCn1cncc1Cn1cnc(-c2ccccc2)c1-c1nc2ccccc2n1C	4	-0.48
CCC(=O)NCC(=O)N1CCC[C@H](C)c2ccccc21	-4	0.4
Cc1cc(C(=O)NCc2ccco2)c2c(-c3ccccc3F)noc2n1	25	-2.86
CN(C)c1noc(CN(CCC(N)=O)c2ccc(F)cc2)n1	-7	0.67
CC(=O)N(c1nc(CN[C@H]2CCCc3nn(C)cc32)cs1)C1CC1	-5	0.91
CC(NC(=O)C1COCCO1)c1ccc(F)cc1Cl (stereo unspecified)	-8	1.14

Structure (SMILES)	% Inhibition [%]	Z score
Cc1noc(C)c1C(C)C(=O)N1CCCC1C1CCCN1C (stereo unspecified)	-2	0.28
O=C1CCN(C(=O)c2ccoc2C2CC2)[C@H](c2ccccc2)C1	4	-0.76
Cc1ccc(C[C@@H](CO)NCc2c(C3CC3)nc3sccn23)cc1	-3	0.54
COc1cccc(C[C@]2(NC(=O)c3ccccc3)N=C3C(C)=CC=CN3C2=O)c1OC	-12	2.33
Cc1c(S(=O)(=O)c2ccc(Cl)cc2)c(N)n(C[C@H]2CCCO2)c1C	-8	1.02
CCc1csc(CNC(=O)c2ccc(N3CC[C@H](COC)C3)nc2)n1	-4	0.5
Cc1ccc(S(=O)(=O)[C@H](C(=O)N(C)C)C(C)C)cc1C	5	-0.83
CCNC(=O)c1ccc(N2CCC3(CC2)CNC(=O)O3)nc1	-3	0.5
Cn1cc(C(=O)C(=O)Nc2ccccc2N2CCc3ccccc32)cn1	4	-0.71
O=C(c1cc(-c2ccc(O)cc2)nc2ccccc12)N1CCC1	-5	0.43
COC1(CNC(=O)c2ccc(O)cc2F)CCC(C)CC1 (stereo unspecified)	-5	0.66
c1cncc(-c2noc([C@@H]3CCCN3Cc3cccs3)n2)c1	-13	1.39
CN(CCc1ccccc1F)C[C@H]1CCCN(S(C)(=O)=O)C1	1	-0.12
CON(C)C(=O)CNC(=O)c1ccc(F)cc1F	-4	0.67
CCN(C)c1nc(-c2cccc(F)c2F)c2c(N)n(-c3ccc(OC)cc3)nc2n1	0	0.03
O=C(NCC[C@H]1CCOC1)c1ccc(C(F)(F)F)[nH]1	-6	1.18
COc1ccc(C2CN(C(=O)CC(C)C)CC2C(=O)NCc2ccc(F)cc2)c(OC)c1 (stereo unspecified)	0	0.03
O=C([C@H]1CCCN(c2cnc3nccnc3c2)C1)N1CCN(C2CCCCC2)CC1	-3	0.63
COc1ccccc1-n1nc(C)c(Cc2ccccc2Cl)c1O	2	-0.19
CC(C)CNc1nc(-c2ccc(Cl)cc2)c2c(N)n(-c3ccccc3Cl)nc2n1	-8	1.14

From ChEMBL document CHEMBL4888484, “Replenishing the malaria drug discovery pipeline: Screening and hit evaluation of the MMV Hit Generation Library 1 (HGL1) against asexual blood stage Plasmodium falciparum ,using a nano luciferase reporter read-out” (2022)
